Measurements reported in the supplement of paper PMC3334620.
Over roughly 33,000 sequences, “E-score (-0.5 to 0.5)” has its median near -0.043; the highest 2% begin near 0.37. The list shows a part of the results.

Each sequence was assayed against T1, Upc2 (UniProt Q12151) (assay: PBM E-score (8-mer binding enrichment) (E-score (-0.5 to 0.5)); higher = stronger / more preferred TF binding; most listed sequences are background and not binding sites). Settings: protein concentration: 200 nM; construct: GST-full length.
T1 sequence: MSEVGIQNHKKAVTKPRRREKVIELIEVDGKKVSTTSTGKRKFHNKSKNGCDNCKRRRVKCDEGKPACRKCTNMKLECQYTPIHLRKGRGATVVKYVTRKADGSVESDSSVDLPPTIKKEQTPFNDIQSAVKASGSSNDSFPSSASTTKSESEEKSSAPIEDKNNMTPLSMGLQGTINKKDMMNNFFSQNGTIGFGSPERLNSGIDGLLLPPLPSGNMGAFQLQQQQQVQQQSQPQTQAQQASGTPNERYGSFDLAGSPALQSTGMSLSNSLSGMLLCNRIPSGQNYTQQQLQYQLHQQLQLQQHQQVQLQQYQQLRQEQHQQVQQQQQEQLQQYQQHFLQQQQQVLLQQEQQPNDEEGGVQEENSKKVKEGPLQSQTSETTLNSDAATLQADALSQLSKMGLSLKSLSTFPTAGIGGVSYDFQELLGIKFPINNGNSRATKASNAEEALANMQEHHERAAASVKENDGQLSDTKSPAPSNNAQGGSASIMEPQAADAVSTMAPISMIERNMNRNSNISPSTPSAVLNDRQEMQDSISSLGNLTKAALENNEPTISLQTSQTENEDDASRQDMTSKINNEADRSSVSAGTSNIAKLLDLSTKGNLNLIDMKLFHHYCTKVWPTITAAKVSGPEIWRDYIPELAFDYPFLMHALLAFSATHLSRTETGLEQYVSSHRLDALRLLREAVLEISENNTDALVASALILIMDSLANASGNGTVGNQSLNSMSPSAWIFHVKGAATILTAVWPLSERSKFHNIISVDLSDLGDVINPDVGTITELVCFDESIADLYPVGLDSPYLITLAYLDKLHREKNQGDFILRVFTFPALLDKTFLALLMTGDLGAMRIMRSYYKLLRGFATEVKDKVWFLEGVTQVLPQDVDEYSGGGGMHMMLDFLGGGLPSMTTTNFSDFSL
Description: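 Universal 'all 10-mer' protein binding microarrays (Agilent AMADID 015681) probed with GST-tagged S. cerevisiae TFs (full-length or DBD) made by in vitro transcription/translation (PURExpress), about 100-200 nM. Bound TF was detected with fluorescent anti-GST. Each ungapped 8-mer (which stands for itself and its reverse complement) is scored by the PBM enrichment score (E-score), a modified Wilcoxon-Mann-Whitney statistic from -0.5 to +0.5, computed with the Universal PBM Analysis Suite. Scale: above 0.35 generally sequence-specific binding.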

| Sequence | PBM E-score |
| --- | --- |
| CGAACCGC | 0.23 |
| TATCATAA | 0.086 |
| AGGGGTAA | -0.0912 |
| AACACCGG | 0.0862 |
| CGAGGCGC | 0.163 |
| AACCGGGG | -0.119 |
| GATCAGGA | -0.154 |
| GATAGATA | -0.0215 |
| AAGATGGT | -0.0517 |
| ACAGGACT | -0.151 |
| CGAATTGA | 0.111 |
| GATTGCAC | -0.0715 |
| CTCCACCC | -0.189 |
| TGTGAAAA | -0.0936 |
| ACATATAG | -0.144 |
| AAGGAACT | -0.102 |
| AGTATTGA | -0.153 |
| CCTCTGCG | 0.00482 |
| AAACGACA | 0.479 |
| ACGTAAAG | 0.308 |
| CCTAGTCC | -0.329 |
| TCTGTACA | 0.12 |
| AGATCTGA | -0.163 |
| CGATTTTC | 0.116 |
| ACGCGTCG | 0.284 |

| Sequence | PBM E-score |
| --- | --- |
| CGCGTGTA | 0.0108 |
| TCCTTCAA | -0.24 |
| ACGATGTG | 0.272 |
| TCCATCCA | -0.127 |
| AGCTACGA | 0.34 |
| CATTCTCC | -0.131 |
| AAGGCGGG | -0.138 |
| CTCAGCCC | -0.249 |
| GTCGCTCA | 0.278 |
| CCGGATGC | -0.0589 |
| AAGGAGAA | 0.112 |
| ATACTCTG | 0.147 |
| ATAGTTGA | 0.103 |
| ACCCAACA | -0.221 |
| CTTGATTC | -0.106 |
| ACGAAGAG | 0.324 |
| AGAGCTAA | -0.126 |
| ACGCTACT | 0.0544 |
| ATTTATAA | 0.0439 |
| CAGGCAGC | -0.324 |
| AGATCATC | -0.0802 |
| ATCTAATC | -0.0686 |
| CTTGAGTA | -0.15 |
| ACAGAAGG | -0.16 |
| CTAGTAAG | -0.321 |

| Sequence | PBM E-score |
| --- | --- |
| GAAGCAGC | -0.111 |
| AGGTAGCC | -0.295 |
| CATCGGCC | -0.173 |
| CATATTGC | -0.274 |
| ACAGCCTG | -0.167 |
| CGGCACAC | -0.0638 |
| CATGATGG | -0.253 |
| GGTAGCAA | 0.0291 |
| AGTTAGAC | -0.026 |
| ATAGATCA | -0.00424 |
| CTGGCAAC | -0.236 |
| AGTCAGAA | -0.141 |
| TATCTAGA | 0.0229 |
| ATTGTTGA | -0.113 |
| AAGTAGTG | -0.0715 |
| ATAACACA | 0.0511 |
| ATGCAAGC | -0.19 |
| CCTAGGAG | -0.273 |
| TAATAGTA | 0.104 |
| ATCGGAAG | -0.0815 |
| GGGCGGAA | -0.158 |
| AACGGACT | 0.0729 |
| ACGGCACA | 0.116 |
| ACATCCAA | 0.0397 |
| GTCCTCCA | -0.13 |

| Sequence | PBM E-score |
| --- | --- |
| GTTTATTA | 0.256 |
| CCCTAAAA | -0.133 |
| GTCGGCCA | -0.0644 |
| ACCAAGCG | 0.0196 |
| CCGATCAA | -0.117 |
| GGATGAAC | -0.00945 |
| AGTAACAC | 0.0459 |
| CTCGGGAA | 0.14 |
| CTAGCGCA | -0.22 |
| CCAGACTA | -0.0755 |
| TACATGTA | 0.0359 |
| CCCCCCAC | -0.4 |
| CCAATTAG | -0.17 |
| ATGGGACC | -0.147 |
| CAGGGAGC | -0.0143 |
| CATAACTA | -0.108 |
| GAGGAGAA | -0.0379 |
| CGGGTACG | 0.43 |
| CTTAGCCA | -0.194 |
| CTCAGTGC | -0.0436 |
| CAGAGCTA | -0.34 |
| AAAAGATT | -0.0277 |
| CGCACAAG | 0.12 |
| GGTGCCTA | -0.1 |
| CAATACAA | 0.00139 |

| Sequence | PBM E-score |
| --- | --- |
| CACATTTC | 0.0463 |
| AGTGACTA | -0.0222 |
| ACAGATGC | -0.00973 |
| AACCGACT | 0.23 |
| CGACTGCA | 0.0711 |
| AACAAACC | 0.00819 |
| CGCCGCGA | -0.0263 |
| GTTAACTA | 0.157 |
| CGTCCCAA | -0.118 |
| CTCACCCC | -0.202 |
| CATCTCCC | -0.216 |
| AGGCCATG | -0.0826 |
| GCAAAAAC | -0.0354 |
| CTCAAGAC | -0.263 |
| ACCTATAG | -0.365 |
| TCAGTAAA | 0.131 |
| CCTCATAC | 0.126 |
| AAGGCGAG | -0.047 |
| GTTGAAAA | -0.00956 |
| ATGGCCAC | -0.178 |
| TAAGAGGA | 0.103 |
| ATGAAAAT | 0.16 |
| CAGTTCAG | -0.0915 |
| AAAATTAC | 0.181 |
| CTGTAAGA | -0.0404 |

| Sequence | PBM E-score |
| --- | --- |
| CCGTCTAA | -0.103 |
| ACCGTGTA | 0.0957 |
| CAATCCAC | -0.232 |
| TAAGCTGA | -0.0574 |
| AACCGGTA | 0.00906 |
| TAACCTAA | -0.042 |
| CTGAAGAA | -0.299 |
| CTCACCAC | -0.289 |
| GAATTGGC | -0.0494 |
| ATAAACAT | 0.0871 |
| GTATGCAA | 0.124 |
| CTCTAGAA | -0.256 |
| GGGAGAGA | -0.266 |
| AGCTTTAG | -0.129 |
| CCTTGGGC | -0.187 |
| TCATATAA | -0.158 |
| TAAATTCA | 0.153 |
| CCACCAGA | -0.0981 |
| GTACATCA | 0.148 |
| ATCGAATA | 0.211 |
| AGCTGCCT | -0.262 |
| CGACGTAC | 0.343 |
| CGTAGACG | 0.262 |
| CGCCCTAC | -0.157 |
| AACAACTC | -0.155 |

| Sequence | PBM E-score |
| --- | --- |
| GCGTGTAA | -0.0726 |
| ACGGTCCG | 0.101 |
| GGGCACAA | -0.196 |
| GTCGAAGA | -0.221 |
| CGTGCAAA | -0.0116 |
| GGCAAACA | -0.0967 |
| CCAGATCC | -0.308 |
| CCCATTAG | -0.184 |
| ATATGAGA | -0.0431 |
| ACTAATTG | -0.205 |
| ACGTCGAG | 0.00439 |
| GAACGTGC | -0.0573 |
| GAGAGTGC | -0.00591 |
| GAGAAGGA | -0.13 |
| CACTATAG | -0.0997 |
| GCTACATA | -0.136 |
| CCACGACC | -0.102 |
| AGCTACTC | -0.129 |
| AAAATGGG | -0.228 |
| CACATTAC | 0.123 |
| AGCTCGGC | 0.118 |
| AGCCACTA | -0.0515 |
